Out of some 48,000 compounds screened, about 120 (0.25%) were called active. Inconclusive results (about 4%) are left out. Calls follow the shape of the dose curve; as a rule, active = well fitted activation curve with a large enough effect; inconclusive = small, poorly fitted or top-dose-only effect, or another doubt; inactive = no such curve, though single readings can be large or run the other way. This is one part of the list.
assay: Primary qHTS for Identification of Small Molecule Activators of Huntingtin-Antisense Promoter Activity; conditions: HEK293 HTT-AS promoter firefly luciferase reporter, 24 h; series mostly up to 57.5 µM; activity change, positive = activation: at the top concentration; also: nearly all actives have a fitted effect of over 55% in size
In short: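 Quantitative HTS used concentration series of up to 57.5 uM final on HEK293 luciferase reporter cells, 24 h at 37 degrees C. Readout was Dual-Glo firefly luminescence.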

SMILES | activity change, positive = activation
COc1cccc(CNC(=O)CSc2nnc(C)c3c(C)n(-c4ccccc4)nc23)c1 | inactive: -32.4%
NC(=O)c1cn(Cc2c(F)cccc2F)nn1 | inactive: -1.26%
Cc1ccccc1Nc1c(-c2ccc(O)cc2)nc2c(C)cccn12 | inactive: -5.24%
COc1ccc(NC(=O)CCS(=O)(=O)c2cc3c4c(c2)CCN4C(=O)CC3)cc1OC | inactive: -14.1%
CCC(C(=O)Nc1ccc(F)cc1F)n1nc(-c2ccccc2)c2c(c1=O)CCCC2 (stereo not drawn) | inactive: -26.2%
COc1cc2c(N3CCN(C(=O)Nc4ccc(OC(C)C)cc4)CC3)ncnc2cc1OCCCN1CCCCC1 | inactive
COc1ccc(NC(=O)c2ccco2)cc1NC(=O)COc1cc(C)ccc1C(C)C | inactive: -34.6%
Cc1nc(N)c(S(=O)(=O)c2ccccc2)c(Nc2ccc(Br)cc2)n1 | inactive: -6.91%
COc1ccc(Cl)cc1S(=O)(=O)N1CCC(c2ccncc2)CC1 | inactive: -29.8%
COc1cccc(/C=C/c2nc3ccccc3c(=O)n2-c2ccc(C)c(C)c2)c1OC | inactive: -13%
CC(=O)N1c2ccccc2CC1C(=O)N1CCN(c2cc(Cl)ccc2C)CC1 (stereo not drawn) | inactive: -15.1%
O=C(c1cccn1-c1nnc(N2CCCC2)s1)N1CCN(c2ccc(F)cc2)CC1 | inactive: -13.9%
Cc1cccc(OCC(=O)NCc2ccc3c(c2)CCN3C(=O)c2ccc(Cl)cc2)c1 | inactive: 1.59%
O=C(c1ccc(F)cc1)N1CCN(CCc2ccncc2)CC1 | inactive: -7.02%
COc1ccc(-c2nnc(SCC(=O)Nc3ccc(C)c(Cl)c3)nc2-c2ccc(OC)c(OC)c2)cc1OC | inactive: -19.4%
CCOc1ccc(NC(=O)c2c(NC(=O)c3ccncc3)sc3c2CCC(C(C)(C)C)C3)cc1 (stereo not drawn) | inactive: 11% [at 11.5 µM, percent change from vehicle, -100% = no light]
CCCCN(C)CCNC(=O)c1cc(-c2ccc(Cl)s2)nc2ccccc12 | inactive: -22.7%
CCc1ccc(NC(=O)CN2C(=O)CC(c3ccccc3)Sc3ccccc32)cc1 (stereo not drawn) | inactive: -31.4%
CC(C)(C)OC(=O)N1CCC(c2c(C(=O)NCCN3CCOCC3)cnn2-c2ccc(F)cc2F)CC1 | inactive: -5.79%
COc1ccc(-c2cccc(NS(=O)(=O)c3ccc(NC(C)=O)cc3)c2)nn1 | inactive: -27.8%
CCOc1ccccc1Nc1nc2c(S(=O)(=O)c3ccc(C)cc3)nnn2c2ccsc12 | inactive: -7.01%
Cc1ccc(-c2nc3scc(CCNS(=O)(=O)c4ccc(Oc5ccccc5)cc4)n3n2)cc1 | inactive: -84%
CCOC(=O)c1c(-c2ccccc2)csc1NC(=O)c1nc(SCC)ncc1Cl | inactive: 18.3%
CCc1cccc(C)c1NC(=O)CN1C(=O)c2cccc3cccc1c23 | inactive: -10.8%

SMILES | activity change, positive = activation
CCCCCNC(=O)C1CCC(Cn2c(=O)c3sccc3n(CC)c2=O)CC1 (stereo not drawn) | inactive: -22%
CCOc1cc(/C=C(\C#N)C(=O)Nc2ccc(OC)cc2)ccc1OCc1cc(=O)n2nc(CC)sc2n1 | inactive: -2.13%
Cc1ccc2nc(CSc3nnc(NC(=O)c4ccc(C(C)(C)C)cc4)s3)cc(=O)n2c1 | inactive: -2.66%
O=C(CSCc1ccc(F)cc1)NCc1ccc(F)cc1 | inactive: 5.73%
Cc1cccc(CC(=O)N2CC(=O)Nc3ccc(F)cc3C2c2ccccc2)c1 (stereo not drawn) | inactive: -9.1%
Cc1ccc(CNC(=O)CSc2c(C(C)C)cnc3c2c(=O)n(C)c(=O)n3C)cc1 | inactive: -19.7%
COc1cc(NC(=O)CCCc2nnc3n(C)c(=O)c4sccc4n23)cc(OC)c1OC | inactive: -2.71%
CCc1ccccc1NC(=O)Nc1ccc2snnc2c1 | inactive: -19.8%
CCC(CC)C(=O)N1CCc2cc(OC)c(OC)cc2C1COc1ccc(F)cc1 (stereo not drawn) | inactive: -28.5%
Cc1cccc(-n2ncc(C(=O)NCc3ccc4c(c3)OCO4)c2C2CCN(C(=O)OC(C)(C)C)CC2)c1 | inactive: -29.1%
O=C(CSc1nc(Nc2ccc(F)c(F)c2)c2ccccc2n1)c1ccc(Cl)cc1 | inactive: -22%
CC1=C(C(=O)Nc2ccccc2)C(c2ccc(O)cc2)n2nc(-c3ccc(Cl)cc3)nc2N1 (stereo not drawn) | inactive: -38%
CN1CCN(C2=Nc3cc(F)ccc3Cc3ccccc32)CC1 | inactive: -17.7%
Cc1ccc(S(=O)(=O)NCCSc2nnnn2-c2ccccc2)cc1 | inactive: -18.2%
COc1ccc2c(c1)NC(c1ccc(Cl)cc1)=NC(c1cccs1)=N2 | inactive: -5.03%
CCn1c(CN2CCCCC2)nc2cc(NC(=O)COc3ccc(C(C)(C)C)cc3)ccc21 | inactive: -31.5%
CC(C)(C)c1ccc(-c2nnc(-c3ccccc3NC(=O)c3cccc(C(F)(F)F)c3)o2)cc1 | inactive: -1.02%
CCCN1C(=O)C(Cc2nc3ccccc3c(=O)n2CC)c2cc(Br)ccc21 (stereo not drawn) | inactive: -27.9%
Cc1ccc(C)c(Cn2c(=O)n(Cc3ccccc3)c(=O)c3sc4ccccc4c32)c1 | inactive: -11.4%
Cc1ccc(CN2C(=O)C3(c4ccccc42)N(c2ccc(C)c(Cl)c2)C(=O)CS3(=O)=O)cc1 (stereo not drawn) | inactive: -37.7%
COc1ccc(NC(=O)CSc2cn(CCNC(=O)c3ccc(OC)cc3)c3ccccc23)cc1 | inactive: -49.7%
Cc1cccc(C)c1NC(=O)c1ccc(N)cc1 | inactive: -6.95%
COc1cccc(/C=C(\C#N)C(=O)Nc2ccc(NC(C)=O)cc2)c1OC | inactive: -10.9%
Cc1oc(-c2cccc(Br)c2)nc1Cn1c(SCc2cccc(F)c2)nc2cccnc21 | inactive: -18.2%

SMILES | activity change, positive = activation
CCCCC(O)/C=C(C)/C=C/C=C/C(=O)N1CCCC1=O (stereo not drawn) | inactive: 3.42%
COc1ccc(NC(=O)CCS(=O)(=O)c2ccc3c(c2)n(C)c(=O)c(=O)n3C)cc1Cl | inactive: -3.1%
O=C(CCC1N=C2c3ccccc3N=C(SCc3cccc(Cl)c3)N2C1=O)NCCc1ccccc1 (stereo not drawn) | inactive: -1.16%
COc1ccc(Br)cc1CNC(=O)CSc1n[nH]c(-c2ccccc2)n1 | inactive: -38.3%
CCC(C)[C@H](N)c1nnc(SCc2ccc(Cl)c(Cl)c2)o1 (stereo partly drawn) | inactive: -15.1%
COC(=O)c1ccc(OCC2c3cc(OC)c(OC)cc3CCN2C(=O)c2cccc(C)c2)cc1 (stereo not drawn) | inactive: -36.9%
COc1cccc(N2CCN(C(=O)CN3CCSc4ccc(S(=O)(=O)N(C)C)cc43)CC2)c1 | inactive: -17.6%
COc1ccc(NC(=O)C2CCN(C3=NS(=O)(=O)C(c4ccc(C)c(C)c4)=C3C)CC2)cc1OC | inactive: -9.86%
COc1ccc(CNC(=O)CCS(=O)(=O)c2cc(Br)cc3c2N(C(=O)C2CC2)CC3)cc1 | inactive: 0.702%
COc1cccc(CNC(=O)Cn2c(=O)n3nc(-c4cccc(C)c4)nc3c3ccccc32)c1 | inactive: 25.1%
CCCCN(Cc1ccccc1)S(=O)(=O)c1ccc2c(c1)CCN2C(=O)C1CCC1 | inactive: -6.4%
O=C(Cn1nc(Cc2cccnc2)c2ccccc2c1=O)N1CCN(c2ccc(F)cc2)CC1 | inactive: -18.9%
CCCSCCCNC(=O)C1CCCN(C(=O)c2cnn(-c3ccccc3)c2-n2cccc2)C1 (stereo not drawn) | inactive: -31.8%
COc1ccc(Nc2ncnc3onc(C)c23)cc1Cl | inactive: -14.2%
Cc1ccc(/C=C/c2onc(C)c2S(=O)(=O)N2CCC(C(=O)NCc3ccco3)CC2)cc1 | inactive: -16.3%
Cc1ccc(CCNC(=O)c2ccc3c(c2)N(Cc2cc(C)ccc2C)C(=O)c2ccccc2S3=O)cc1 (stereo not drawn) | inactive: -13.7%
CCN(CC)c1ccc(NC(=O)CN2C(=O)c3cccnc3Oc3ccccc32)c(C)c1 | inactive: -9.26%
CCOC(=O)c1cccc(NS(=O)(=O)c2cc(Br)cc3c2N(C(=O)C2CC2)CC3)c1 | inactive: -49.1%
O=C(CCNS(=O)(=O)c1cccc2nsnc12)Nc1ccc(F)cc1 | inactive: -1.28%
COc1ccc(-c2nc3cc(NC(=O)COc4ccc(F)cc4)ccc3o2)cc1 | inactive: 2.18%
Cc1csc2nc(-c3cccc(NC(=O)c4ccc(S(N)(=O)=O)cc4)c3)cn12 | inactive: 1.9%
Cc1ccc2cccc(NC(=O)c3ccc(-c4ccc(Cl)cc4Cl)o3)c2n1 | inactive: 18.5%
COc1ccc(OC)c(CNC(=O)c2cc(=O)[nH]c3ccc(S(=O)(=O)N4CCCCC4C)cc23)c1 (stereo not drawn) | inactive: -15%
CCOc1ccc(-c2cc(C)n3nc(C(=O)Nc4cc(Cl)ccc4O)cc3n2)cc1 | inactive: -16.3%

SMILES | activity change, positive = activation
COc1cccc(NC(=O)Cn2c(=O)n(Cc3nc(-c4ccccc4)no3)c(=O)c3ccccc32)c1 | inactive: -21.7%
CCC(=O)Nc1ccc(S(=O)(=O)NCc2cccn2Cc2cccc(C)c2)cc1 | inactive: -35.9%
COc1ccccc1/C=C(\C#N)c1nc(-c2cc3ccccc3oc2=O)cs1 | inactive: 3.92%
COc1ccc(S(=O)(=O)NCCc2sc(-c3ccccc3)nc2C)cc1OC | inactive: -7.91%
CCOC(=O)N1CCC(NC(=O)c2cnn(-c3ccccc3)c2C2CCN(C(=O)OC(C)(C)C)CC2)CC1 | inactive: -6.35%
O=C(NCCC1=CCCCC1)c1ccc2c(c1)ncn2-c1cccc(Cl)c1 | inactive: 23.4%
CCc1ccccc1NC(=O)CSc1ncc2c(n1)-c1ccccc1N(C)S2(=O)=O | inactive: 4.72%
CCN(C(=O)C(NS(=O)(=O)c1cccc2nsnc12)c1ccccc1)c1ccccc1 (stereo not drawn) | inactive: -17%
COCCCNC(=O)CCCN1C(=O)CCn2nc(-c3cn(C)c4ccccc34)cc21 | inactive: -8.55%
COc1ccc(-c2ccnc3c2c(=O)n(C)c(=O)n3C)cc1OC | inactive: 6.57%
COc1ccc(OC)c(CNC(=O)CCS(=O)(=O)c2ccc3c(c2)oc(=O)n3C)c1 | inactive: 6.8%
Cc1ccc(NC(=O)[C@H](CSCc2ccccc2)N2Cc3ccccc3C2=O)cc1 | inactive: -3.43%
Cc1cc(C)c(NC(=O)CN2C(=O)c3cccnc3Oc3ccc(Cl)cc32)c(C)c1 | inactive: -12.8%
Cc1ccc(C(=O)N2c3nc(-c4ccco4)nn3C3(CCCCC3)[C@@H]3CCCC[C@@H]32)cc1 | inactive: -31.8%
Cc1cc(Nc2ccc(C)c(Cl)c2)n2nc(-c3ccccc3)nc2n1 | inactive: -15.4%
CC1CCN(S(=O)(=O)c2cccc(C(=O)NC3CCS(=O)(=O)C3)c2)CC1 (stereo not drawn) | inactive: -13.2%
CCC1CN(C(=O)N2CCC(C(=O)NCc3cccs3)CC2)c2ccccc2O1 (stereo not drawn) | inactive: -21.7%
Cc1ccc(N2C(=O)CSC23C(=O)N(CC(=O)NCCc2ccccc2)c2ccccc23)cc1 (stereo not drawn) | inactive: -14.2%
COc1cccc(CNCc2c(C(=O)O)n(Cc3ccc(C)cc3)c3cc(C)ccc23)c1OC | inactive: -26.4%
CC(=O)c1ccc(NC(=O)c2sc(-n3nc(C)c(Cc4ccc5c(c4)OCO5)c3C)nc2C)cc1 | inactive: -5.6%
CCC1CCCCN1CCCNC(=O)c1ccc2c(c1)N(Cc1cccc(Cl)c1)C(=O)c1ccccc1S2(=O)=O (stereo not drawn) | inactive: -20.5%
